In patent US11178870B2 (priority 2017, dated 2021):

Assays:
Magnaporthe grisea = assay type: in vivo; conditions: Blast on rice
Phytophthora infestans = assay type: in vivo; conditions: Late blight on tomato

SMILES	Test A control value (Magnaporthe grisea)	Test F control value (Phytophthora infestans)
CCn1c(-c2c(F)cc(OC)cc2F)c(-n2c(C)ccc2C)cc(Cl)c1=O [Compound 126]	H (H shows the control value more than 50%)	L (L shows the control value of 50% or less)
CCn1c(-c2c(F)cccc2F)c(-c2ocnc2Cl)cc(Cl)c1=O [Compound 50]	H (H shows the control value more than 50%)	L (L shows the control value of 50% or less)
CCn1c(-c2ccccc2Cl)c(-n2cc(Cl)cn2)ccc1=O [Compound 169]	L (L shows the control value of 50% or less)	L (L shows the control value of 50% or less)
CCn1c(-c2c(F)cc(NC)cc2F)c(-c2cnco2)cc(Cl)c1=O [Compound 119]	L (L shows the control value of 50% or less)	L (L shows the control value of 50% or less)
Cn1c(-c2c(F)cc(F)cc2F)c(-n2cc(Cl)cn2)cc(Br)c1=O [Compound 176]	H (H shows the control value more than 50%)	L (L shows the control value of 50% or less)
CCn1c(-c2ccc(F)cc2F)c(-n2cc(Cl)cn2)ccc1=O [Compound 145]	H (H shows the control value more than 50%)	L (L shows the control value of 50% or less)
CCn1c(-c2c(F)cc(F)cc2F)c(-n2cc(C(F)(F)F)cn2)cc(C(F)(F)F)c1=O [Compound 154]	H (H shows the control value more than 50%)	L (L shows the control value of 50% or less)
CCn1c(-c2c(F)cc(F)cc2F)c(-n2cc(C)c(C)n2)ccc1=O [Compound 109]	H (H shows the control value more than 50%)	L (L shows the control value of 50% or less)
CCn1c(-c2c(F)cc(OC)cc2F)c(-c2cnco2)cc(Br)c1=O [Compound 90]	L (L shows the control value of 50% or less)	L (L shows the control value of 50% or less)
CCn1c(-c2c(F)cc(F)cc2F)c(-c2ocnc2F)cc(Cl)c1=O [Compound 120]	H (H shows the control value more than 50%)	L (L shows the control value of 50% or less)
CCn1c(-c2c(F)cc(OC)cc2F)c(-c2ocnc2Br)cc(Cl)c1=O [Compound 118]	H (H shows the control value more than 50%)	L (L shows the control value of 50% or less)
CCn1c(-c2c(F)cc(F)cc2F)c(C2OCCO2)cc(Cl)c1=O [Compound 9]	H (H shows the control value more than 50%)	L (L shows the control value of 50% or less)
CCn1c(-c2c(F)cc(F)cc2F)c(-n2nc(C)c(Cl)c2C)ccc1=O [Compound 95]	H (H shows the control value more than 50%)	L (L shows the control value of 50% or less)
CCn1c(-c2c(F)cccc2F)c(-c2ccsc2)ccc1=O [Compound 16]	L (L shows the control value of 50% or less)	L (L shows the control value of 50% or less)
CCn1c(-c2ccccc2Cl)c(-n2ncc(C)c2Cl)cc(Cl)c1=O [Compound 179]	H (H shows the control value more than 50%)	L (L shows the control value of 50% or less)
O=c1c(Br)cc(-c2cccnc2Cl)c(-c2c(F)cc(F)cc2F)n1CC(F)F [Compound 69]	H (H shows the control value more than 50%)	L (L shows the control value of 50% or less)

SMILES	Test A control value (Magnaporthe grisea)	Test F control value (Phytophthora infestans)
CCn1c(-c2c(F)cc(OC)cc2F)c(C2OCCO2)cc(Cl)c1=O [Compound 12]	H (H shows the control value more than 50%)	L (L shows the control value of 50% or less)
CCn1c(-c2c(F)cc(F)cc2F)c(-n2cc(Cl)c(C)n2)cc(Cl)c1=O [Compound 142]	H (H shows the control value more than 50%)	L (L shows the control value of 50% or less)
O=c1c(Br)cc(-c2cccnc2Cl)c(-c2c(F)cccc2F)n1CC(F)F [Compound 59]	H (H shows the control value more than 50%)	L (L shows the control value of 50% or less)
CCn1c(-c2c(F)cc(F)cc2F)c(-n2cc(C(F)F)cn2)cc(Cl)c1=O [Compound 124]	H (H shows the control value more than 50%)	L (L shows the control value of 50% or less)
CCn1c(-c2ccccc2Cl)c(-n2cc(C)cn2)cc(Br)c1=O [Compound 180]	H (H shows the control value more than 50%)	L (L shows the control value of 50% or less)
Cn1c(-c2c(F)cccc2F)c(-c2cccnc2Cl)cc(Br)c1=O [Compound 106]	H (H shows the control value more than 50%)	H (H shows the control value more than 50%)
CCn1c(-c2c(F)cc(F)cc2F)c(-n2nc(C)cc2C)ccc1=O [Compound 93]	L (L shows the control value of 50% or less)	L (L shows the control value of 50% or less)
CCn1c(-c2c(F)cc(OC)cc2F)c(-c2oc(Br)nc2Br)cc(Br)c1=O [Compound 102]	H (H shows the control value more than 50%)	L (L shows the control value of 50% or less)
CCn1c(-c2ccccc2Cl)c(-n2cc(Cl)cn2)cc(Br)c1=O [Compound 173]	H (H shows the control value more than 50%)	L (L shows the control value of 50% or less)
CCn1c(-c2c(F)cccc2F)c(C2OCCCO2)cc(Cl)c1=O [Compound 11]	H (H shows the control value more than 50%)	L (L shows the control value of 50% or less)
CCn1c(-c2c(F)cc(F)cc2F)c(-n2cc(C(F)(F)F)cn2)cc(Cl)c1=O [Compound 155]	L (L shows the control value of 50% or less)	L (L shows the control value of 50% or less)
CCn1c(-c2c(F)cccc2F)c(-c2ocnc2OC)cc(Cl)c1=O [Compound 91]	L (L shows the control value of 50% or less)	L (L shows the control value of 50% or less)
Cn1c(-c2c(F)cc(F)cc2F)c(-n2cc(Cl)cn2)ccc1=O [Compound 174]	H (H shows the control value more than 50%)	H (H shows the control value more than 50%)
CCn1c(-c2c(F)cc(OC)cc2F)c(-n2cc(Br)cn2)cc(Br)c1=O [Compound 78]	H (H shows the control value more than 50%)	L (L shows the control value of 50% or less)
Cn1c(-c2c(F)cc(F)cc2F)c(-c2cccnc2Cl)ccc1=O [Compound 98]	H (H shows the control value more than 50%)	L (L shows the control value of 50% or less)
CCn1c(-c2c(F)cccc2F)c(-n2cc(Cl)cn2)cc(Cl)c1=O [Compound 53]	H (H shows the control value more than 50%)	L (L shows the control value of 50% or less)
